Measured values from paper PMC4336329 (PLoS ONE, 2015).
The whole screen tested about 310,000 compounds, of which about 14,000 (4.5%) showed an effect of 50% or more. The effect is printed as a negative number. The list shows a part of the results.

Each molecule was assayed against human ether-à-go-go-related gene (hERG) potassium channel (human, UniProt Q12809) (assay: primary screen, population patch clamp on CHO cells stably expressing hERG).
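Note: peak tail current of the secondary pulse compared with the same well before compound.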

Sequence of human ether-à-go-go-related gene (hERG) potassium channel (Q12809 whole entry, looked up): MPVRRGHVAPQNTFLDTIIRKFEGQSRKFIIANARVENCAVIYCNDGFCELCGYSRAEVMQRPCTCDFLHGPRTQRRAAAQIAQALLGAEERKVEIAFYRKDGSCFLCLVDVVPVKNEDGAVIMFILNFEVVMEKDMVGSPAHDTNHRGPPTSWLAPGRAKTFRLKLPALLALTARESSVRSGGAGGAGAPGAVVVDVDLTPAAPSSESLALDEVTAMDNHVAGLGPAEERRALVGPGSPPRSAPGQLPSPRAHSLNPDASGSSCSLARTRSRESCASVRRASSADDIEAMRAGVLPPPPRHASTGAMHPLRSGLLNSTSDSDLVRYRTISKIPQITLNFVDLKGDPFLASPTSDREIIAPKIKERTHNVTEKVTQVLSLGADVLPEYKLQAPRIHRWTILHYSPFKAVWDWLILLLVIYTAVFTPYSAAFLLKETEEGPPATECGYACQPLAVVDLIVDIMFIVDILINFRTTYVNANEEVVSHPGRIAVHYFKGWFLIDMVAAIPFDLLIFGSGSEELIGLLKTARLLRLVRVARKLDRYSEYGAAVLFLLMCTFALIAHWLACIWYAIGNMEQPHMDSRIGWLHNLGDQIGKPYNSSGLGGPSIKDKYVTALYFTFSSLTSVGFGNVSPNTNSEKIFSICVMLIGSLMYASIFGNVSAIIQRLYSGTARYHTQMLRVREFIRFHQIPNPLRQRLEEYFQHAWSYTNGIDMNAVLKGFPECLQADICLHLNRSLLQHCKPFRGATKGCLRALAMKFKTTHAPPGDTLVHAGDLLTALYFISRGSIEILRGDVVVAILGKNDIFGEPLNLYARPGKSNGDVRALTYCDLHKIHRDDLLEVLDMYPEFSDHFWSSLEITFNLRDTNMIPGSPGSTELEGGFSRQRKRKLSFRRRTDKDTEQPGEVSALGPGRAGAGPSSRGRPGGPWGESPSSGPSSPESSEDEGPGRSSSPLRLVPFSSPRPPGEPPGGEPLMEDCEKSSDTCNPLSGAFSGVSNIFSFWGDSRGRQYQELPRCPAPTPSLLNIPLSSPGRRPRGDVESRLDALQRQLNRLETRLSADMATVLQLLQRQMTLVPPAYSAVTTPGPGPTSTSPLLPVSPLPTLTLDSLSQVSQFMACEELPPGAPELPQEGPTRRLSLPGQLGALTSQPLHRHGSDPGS

SMILES | hERG current change (%, negative = inhibition) at 10uM [%]
COc1ccc2c(c1)c(CC(=O)OCC(=O)O)c(C)n2C(=O)c1ccc(Cl)cc1 | -7.76
COc1ccc(C2=NOC(CNC(=S)N3CCOCC3)C2)cc1 (stereo not shown) | 1.08
CCCCCOc1ccc(NC(=O)CSc2cccc3cccnc23)cc1 | 18.8
COc1ccccc1NC(=O)CN1C(=O)COc2ccc(S(=O)(=O)N3CCCCCC3)cc21 | 18.9
CCCOc1ccc(NC(=O)OC2CCN(C)CC2)cc1.O=C(O)/C=C/C(=O)O | -17.8
O=C(NCCc1ccc(Cl)cc1)c1cnccn1 | 3.46
CC(C)C1Cc2c(C#N)c(N)sc(=S)c2CO1 (stereo not shown) | -6.09
O=C(N/N=C/c1ccncc1)c1ccc(COc2cccc3cccnc23)cc1 | -45.6
C=CCN1C(=O)c2ccc(C(=O)N3CCN(c4ccccc4OC)CC3)cc2C1=O | 0.00618
CCCCCN(C(=O)CCC(=O)OCc1cccc(Cl)c1)c1c(N)n(CCCC)c(=O)[nH]c1=O | 8.16
NNC(=O)CN1C(c2ccc(Cl)cc2)=Nc2ccc(Br)cc2C1c1ccccc1 (stereo not shown) | -53.3
CC(OC(=O)Cc1c(F)cccc1Cl)C(=O)NC1(C#N)CCCCC1 (stereo not shown) | -22.4
CCOc1ccc(N(CC(=O)NCCOc2ccccc2OC)S(=O)(=O)c2ccccc2)cc1 | -21.2
Cc1ccc(N2C(=O)N(CC(=O)Nc3ccc(C)cc3[N+](=O)[O-])C(=O)C2C)cc1 (stereo not shown) | 3.52
Clc1cccc2c1CCN(Cc1nc(-c3cnccn3)no1)C2 | -8.25
COc1cc(/C=C/C(=O)OCC(=O)NC2CCS(=O)(=O)C2)ccc1O (stereo not shown) | 4.99
Cc1ccc2nsnc2c1S(=O)(=O)Nc1ccccc1C(=O)O | -7.06
CC(=O)OC1C([N+]2(C)CCCCC2)C[C@H]2C3CC[C@H]4C[C@H](OC(C)=O)C([N+]5(C)CCCCC5)CC4(C)[C@H]3CCC12C.[Br-] (stereo partly shown) | 12.1
CC1CCN(S(=O)(=O)c2ccccc2)CC1 | -3.32
FCCCOc1ccc(-c2nccc(-c3ccc(F)cc3)n2)cc1 | -1.06
CN(Cc1ccc(Cl)s1)C(=O)CCl | -35
Cc1cc(N/N=C/c2ccccc2Cl)nc(NCc2ccccc2)n1 | -0.242

SMILES | hERG current change (%, negative = inhibition) at 10uM [%]
CCO[C@H]1OC(C(=O)N2CCOCC2)=C[C@@H](C2CC2)[C@@H]1CCCO | 19.9
Cc1ccc(-n2c(C)cc(/C=C3/C(=O)NC(=O)N(Cc4ccco4)C3=O)c2C)cc1 | 17.5
CCCc1[nH]nc2c1C(c1ccc(OC(=O)N3CCOCC3)cc1)C(C#N)=C(N)O2 (stereo not shown) | 4.04
CCCCCCn1c(-c2cccs2)n[nH]c1=S | -12.1
COc1cccc(NC2=NCCCS2)c1 | 5.9
CCOC(=O)c1c(C)nn(-c2ccc(NC(=O)c3c(C)noc3C)cc2)c1C | 16.9
CCn1c(SCC(=O)Nc2ccc3c(c2)OCCO3)nnc1C(C)C | 8.55
CC(C)CCn1c(N)c(S(=O)(=O)c2cccs2)c2nc3ccccc3nc21 | -5.06
Cc1cc(OCC(=O)Nc2cc(S(=O)(=O)N3CCOCC3)ccc2N2CCCC2)ccc1C(C)C | -1.3
COc1ccccc1-c1cc(C(=O)NC2CCN(C)CC2)c2ccc(Cl)c(C)c2n1 | -42
COc1cc(NC(=O)COc2cccc(C)c2C)ccc1NC(=O)c1ccco1 | 13
COc1cccc(C(=O)Cn2c(N3CCOCC3)nc3c2c(=O)n(C)c(=O)n3C)c1 | 7.88
Cc1ccc(C)c(NS(=O)(=O)c2cc(C(=O)N3CCCC3)ccc2Cl)c1 | -22.4
CCN(CC)c1ccc(/C=N/OCC(=O)N2CCCc3ccccc32)cc1 | 18
NS(=O)(=O)c1ccc(CCN2C(=O)/C(=C\c3ccc(Cl)cc3)SC2=S)cc1 | 7.74
O=C1CCC/C(=N/NC(=O)c2sc3ccccc3c2Cl)C1 | 5.82
Cc1ccc(-n2ncc3c2ncn2c(C)nnc32)cc1C | -10.5
O=C(NCCc1ccccc1)c1ccccc1F | 24.5
COC(=O)c1ccccc1NC(=O)c1ccc(COc2cc(C)cc(C)c2)o1 | 1.12
O=C(N1CCCCCC1)N1CCN(C(=O)N2CCOCC2)CC1 | -6.82
CC(=O)c1cc(-c2ccc(F)cc2)n(CCC(=O)NC(C)(C)C)c1C | -9.87
Cc1ccc(Nc2nc(C)nc3c2oc2ccccc23)cc1 | 10.7

SMILES | hERG current change (%, negative = inhibition) at 10uM [%]
CCOc1ccc(OCC)c(NC(=O)CN2CCN(c3cccc(C)c3)C(C)C2)c1.Cl (stereo not shown) | 5.61
Cc1cc(C)n2ncc(C(=O)NCc3cccnc3)c2n1 | 3.31
COc1ccc(C(=O)Nc2ccccc2C(=O)O)cc1NC(=O)C(c1ccccc1)c1ccccc1 | 8.41
CCC(NC(=O)N(Cc1ccccc1)Cc1ccc2c(c1)OCO2)(C(F)(F)F)C(F)(F)F | -11
O=C(COc1ccc2ccc(=O)oc2c1)c1ccccc1 | 15.6
COc1cc(SC)ccc1C(=O)Nc1ccc(C)cc1C | 5.2
CCOC(=O)N1CCC(NC(=O)c2cc(S(=O)(=O)N3CCOCC3)ccc2F)CC1 | -10.6
O=C(CN1CCN(c2ccc(Cl)cc2[N+](=O)[O-])CC1)N1CCOCC1 | -33.6
COc1ccc(OCCC(=O)NC2=NCCS2)cc1 | -1.4
CCCC(=O)C1C(=O)NC(=O)NC1=O | 27.6
COc1ccc(N2CCN(CC(O)COc3ccc(F)cc3)CC2)cc1.Cl (stereo not shown) | -69.9
COc1ccc(S(=O)(=O)N2CCOCC2)cc1NC(=O)CN1C(=O)NC(C)(C2CC2)C1=O (stereo not shown) | 14.5
Cc1cc(C)nc(N/N=C/c2cn[nH]c2-c2ccc(F)cc2)n1 | 8.66
COc1ccc(CNS(=O)(=O)NCc2ccc(C)cc2)cc1OC | -13.8
COc1ccc(NCc2cc(=O)[nH]c3ccccc23)cc1 | 5.37
Clc1ccccc1CSc1ncccn1 | -6.09
CCN(NC(=O)C(O)(c1ccccc1)c1ccccc1)C(=O)c1ccccc1 | 0.711
C=C1SC(Nc2c(C)cc(C)cc2C)=NC12CCCCC2 | 6.2
COc1ccc(NC(=O)C/C(C)=N/NC(=O)C(=O)Nc2cccc(Cl)c2C)c(OC)c1 | 0.705
CC1(C)Cc2cccc(OCC(O)CNCc3ccccn3)c2O1.Cl (stereo not shown) | -25.1
O=C(NCc1nnnn1-c1ccc(F)c(F)c1)c1ccc2c(c1)OCO2 | 7.43
O=C(CCn1c(=S)oc2ccccc21)Nc1ccccc1Br | 18.9

SMILES | hERG current change (%, negative = inhibition) at 10uM [%]
O=C1c2ccccc2NC2(CCCC2)N1O | -2.23
CC1(C)Cc2c(cnn2-c2ccccc2)C(NC(=O)CCCN2CCCCC2=O)C1 (stereo not shown) | 9.01
C[C@H](NC(=O)c1nc[nH]c1C(=O)NCC(=O)OC(C)(C)C)c1ccccc1 | -8.21
C/C(Nc1ccc(C)cc1)=C(/C#N)C(N)=O | 5.72
Cc1ccc(CC(=O)OCCNC(=O)c2cccnc2)cc1.Cl | -1.83
Cc1ccc(NC(=O)CCCC(=O)O)c(-c2nc3ccccc3[nH]c2=O)c1 | 8.05
CCN1CCN(CC(=O)N2N=C(c3cccs3)CC2c2ccc(C)cc2)C(=O)C1=O (stereo not shown) | -31
COc1ccccc1CNC(=O)C/C(C)=N/NC(=O)Cc1ccccc1 | -14
O=C(c1cc(-c2ccccc2)on1)N1CCCc2ccccc21 | -18.1
CC(C)(C)c1ccccc1OCCOCCSc1ncccn1 | -3.85
O=C(O)c1[nH]c2ccc(Cl)cc2c1CC(=O)N1CCN(c2ccccc2)CC1 | 7.42
CCOC(=O)c1c(S(=O)(=O)NCC(=O)Nc2cccc(C)c2)c(C)n(C)c1C | 20.1
O=S(=O)(NCCc1ccncc1)c1ccc(S(=O)(=O)N2CCCCCC2)cc1 | -5.98
Cc1nc2ccccn2c1/C(O)=C1\C(=O)C(=O)N(CCCn2ccnc2)C1c1ccncc1 (stereo not shown) | 4.18
COc1ccc(CCNC(=O)c2cnn(-c3ccc(C)c(C)c3)c2NC(=O)c2ccco2)cc1OC | -4.46
CC(C)(Oc1ccc(Cl)cc1)C(=O)Nc1ccncc1 | -21.7
CC(=O)NC(=O)NC(C)Cc1ccccc1 (stereo not shown) | 13.4
O=C(NC1CCCC1)c1cc(-c2ccc(Cl)cc2)on1 | 8.04
COCCN=C1NN=C(c2cc(C)n(CC3CCCO3)c2C)CS1 (stereo not shown) | 19.2
COc1ccc(CN2C(=O)c3ccccc3C2C(=O)NCC2CCCO2)c(OC)c1 (stereo not shown) | 7.33
CCC(C(=O)OCC(=O)NC1CCS(=O)(=O)C1)c1ccccc1 (stereo not shown) | -2.44
CC1CCN(S(=O)C23CC4CC(CC(C4)C2)C3)CC1 (stereo not shown) | 14.2
